Assay results reported in PMC4336329 (PLoS ONE, 2015).
Hit rate of the full screen: of about 310,000 compounds, about 2,200 (0.71%) showed an effect of 50% or more. The effect is printed as a negative number. The list shows a part of the results.

The compounds below were run against human ether-à-go-go-related gene (hERG) potassium channel (human, UniProt Q12809) (assay: primary screen, population patch clamp on CHO cells stably expressing hERG).
Chain of human ether-à-go-go-related gene (hERG) potassium channel (Q12809 whole entry, looked up): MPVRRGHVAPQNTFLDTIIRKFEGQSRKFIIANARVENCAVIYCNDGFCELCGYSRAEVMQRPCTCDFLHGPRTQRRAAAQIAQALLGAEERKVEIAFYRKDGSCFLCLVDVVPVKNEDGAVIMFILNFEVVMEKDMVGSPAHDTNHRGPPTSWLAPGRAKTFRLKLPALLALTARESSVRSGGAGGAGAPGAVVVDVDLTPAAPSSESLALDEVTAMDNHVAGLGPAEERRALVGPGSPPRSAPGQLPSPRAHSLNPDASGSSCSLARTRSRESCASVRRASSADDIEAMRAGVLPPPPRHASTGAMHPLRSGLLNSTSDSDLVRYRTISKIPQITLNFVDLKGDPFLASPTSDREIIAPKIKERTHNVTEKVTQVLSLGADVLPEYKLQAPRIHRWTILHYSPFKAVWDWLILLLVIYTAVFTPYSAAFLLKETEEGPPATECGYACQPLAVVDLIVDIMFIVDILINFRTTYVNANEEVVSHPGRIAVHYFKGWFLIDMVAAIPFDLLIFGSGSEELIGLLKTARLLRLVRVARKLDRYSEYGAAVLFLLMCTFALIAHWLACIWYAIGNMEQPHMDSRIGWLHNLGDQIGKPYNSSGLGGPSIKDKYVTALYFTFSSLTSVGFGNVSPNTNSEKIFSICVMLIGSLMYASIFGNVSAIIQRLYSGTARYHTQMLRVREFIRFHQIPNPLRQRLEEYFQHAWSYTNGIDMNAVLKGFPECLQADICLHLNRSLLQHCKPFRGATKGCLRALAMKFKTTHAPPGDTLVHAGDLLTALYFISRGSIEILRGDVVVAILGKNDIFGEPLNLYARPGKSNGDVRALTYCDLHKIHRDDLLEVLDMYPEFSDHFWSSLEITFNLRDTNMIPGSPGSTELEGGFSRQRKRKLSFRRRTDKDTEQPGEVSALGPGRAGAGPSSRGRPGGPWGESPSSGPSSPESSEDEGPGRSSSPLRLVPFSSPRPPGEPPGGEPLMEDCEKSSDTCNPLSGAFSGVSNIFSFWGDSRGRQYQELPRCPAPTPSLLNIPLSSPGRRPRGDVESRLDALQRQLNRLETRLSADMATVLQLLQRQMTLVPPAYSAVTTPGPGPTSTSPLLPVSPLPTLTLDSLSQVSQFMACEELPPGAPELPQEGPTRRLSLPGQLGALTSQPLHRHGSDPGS
`COc1cc(OC)c(OC)cc1CNCCNC(=O)c1nonc1N.Cl` was tested, and the “hERG current change (%, negative = inhibition) at 1uM” value was 6.5%.
`Cc1ccc(S(=O)(=O)N/N=C/c2cc(Br)ccc2O)cc1` was tested, and the “hERG current change (%, negative = inhibition) at 1uM” value was 10.3%.
In the case of `O=C(O)c1ccc(S(=O)(=O)NCC2CCCCC2)cc1`, the “hERG current change (%, negative = inhibition) at 1uM” value was 14%.
In the case of `Fc1ccc(/C=N/NC(=S)NCCc2ccccc2)cc1F`, the “hERG current change (%, negative = inhibition) at 1uM” value was 14.9%.
In the case of `Cc1ccc(S(=O)(=O)N2CCN(c3ncnc4sccc34)CC2)cc1`, the “hERG current change (%, negative = inhibition) at 1uM” value was 7.75%.
For `Cc1ccc(C)c(OCc2nnc(SCC(=O)NC(=O)NCc3ccco3)o2)c1`, the “hERG current change (%, negative = inhibition) at 1uM” value was 11.5%.
In the case of `O=C(NCc1ccco1)c1ccc2c(=O)n(-c3ccccc3)c(=S)[nH]c2c1`, the “hERG current change (%, negative = inhibition) at 1uM” value was 10.4%.
In the case of `C=CCn1c(SCC(=O)N2CCOCC2)nc2ccccc2c1=O`, the “hERG current change (%, negative = inhibition) at 1uM” value was -1.58%.
With `CNc1cc(CSc2ccc(Cl)cc2)nc(C)n1` the “hERG current change (%, negative = inhibition) at 1uM” value was 14.2%.
`CN(CC(=O)Nc1ccc(Cl)cc1)C(=O)c1sccc1-c1ccccc1` was tested, and the “hERG current change (%, negative = inhibition) at 1uM” value was -4.11%.
With `O=c1oc2cc(O)ccc2cc1-c1ccc(F)cc1` the “hERG current change (%, negative = inhibition) at 1uM” value was 8.5%.
For `COc1cccc(C(=O)C2CCCN(Cc3ccc(OC)c(Cn4cncn4)c3)C2)c1` (stereo not drawn), the “hERG current change (%, negative = inhibition) at 1uM” value was -20.2%.
`COc1ccc(N(CC(=O)N2CCN(c3cccc(Cl)c3)CC2)S(=O)(=O)c2c(C)noc2C)cc1` was tested, and the “hERG current change (%, negative = inhibition) at 1uM” value was 15.5%.
In the case of `Cc1cc(C)cc(NC(=O)COC(=O)CC2CCCC2)c1`, the “hERG current change (%, negative = inhibition) at 1uM” value was 12.4%.
`Cc1cccc(Nc2nc(N3CCOCC3)nc(N3CCOCC3)n2)c1` was tested, and the “hERG current change (%, negative = inhibition) at 1uM” value was 6.58%.
With `CCc1ccc(C(C)NC(=O)Cc2ccc(F)cc2)cc1` (stereo not drawn) the “hERG current change (%, negative = inhibition) at 1uM” value was 14.8%.
With `c1csc(-c2ccc(N3CCOCC3)nn2)c1` the “hERG current change (%, negative = inhibition) at 1uM” value was -22.4%.
With `O=C(O)CONC(=O)c1cc(OCC(F)(F)F)ccc1OCC(F)(F)F` the “hERG current change (%, negative = inhibition) at 1uM” value was 14.3%.
With `CNC(=S)NNS(=O)(=O)c1ccc(OC)cc1OC` the “hERG current change (%, negative = inhibition) at 1uM” value was 15.5%.
With `CCn1cc(C2=NC(C(C)C)CO2)c2ccccc21` (stereo not drawn) the “hERG current change (%, negative = inhibition) at 1uM” value was 7.95%.
With `Cc1nn(C)c(C(=O)N/N=C/c2ccc(-c3ccccc3)cc2)c1Cl` the “hERG current change (%, negative = inhibition) at 1uM” value was 13.3%.
`COc1cccc(Oc2nc(N)ncc2[N+](=O)[O-])c1` was tested, and the “hERG current change (%, negative = inhibition) at 1uM” value was 11.6%.
For `Cc1nnc(SCC(=O)Nc2nc3c(s2)CC(C)CC3)s1` (stereo not drawn), the “hERG current change (%, negative = inhibition) at 1uM” value was 4.44%.
In the case of `O=C(c1ccccc1)N1CCN(c2ccc([N+](=O)[O-])c(N3CCOCC3)c2)CC1`, the “hERG current change (%, negative = inhibition) at 1uM” value was 3.63%.
With `Cc1cc([N+](=O)[O-])nn1CCCC(=O)NC1CCCCC1` the “hERG current change (%, negative = inhibition) at 1uM” value was 5.71%.
`O=C(c1ccc(CS(=O)Cc2cccc(Cl)c2)o1)N1CCN(C2CCCCC2)CC1` (stereo not drawn) was tested, and the “hERG current change (%, negative = inhibition) at 1uM” value was 7.94%.
In the case of `O=C(CC1NCCc2ccccc21)Nc1cccc(Cl)c1` (stereo not drawn), the “hERG current change (%, negative = inhibition) at 1uM” value was 7.46%.
In the case of `CCCCCOC(=O)NCC(O)c1ccccc1` (stereo not drawn), the “hERG current change (%, negative = inhibition) at 1uM” value was 18.5%.
With `COC(=O)c1ccccc1NC(=O)CS(=O)(=O)Cc1nc(-c2ccc(C)cc2)oc1C` the “hERG current change (%, negative = inhibition) at 1uM” value was 18.5%.
For `C=CCn1c(-c2cccc(OC)c2)nc2nc3ccccc3nc21`, the “hERG current change (%, negative = inhibition) at 1uM” value was 13.5%.
`Cc1ccc(C)c(C(=O)COC(=O)c2ccccc2N2C(=O)C3C4CCC(C4)C3C2=O)c1` (stereo not drawn) was tested, and the “hERG current change (%, negative = inhibition) at 1uM” value was 10.2%.
With `C=CCOc1c(Br)cc(CNc2nccs2)cc1OC` the “hERG current change (%, negative = inhibition) at 1uM” value was 11.7%.
`Cc1cc2oc(C(=O)NC3CCS(=O)(=O)C3)c(C)c2cc1C` (stereo not drawn) was tested, and the “hERG current change (%, negative = inhibition) at 1uM” value was 8.53%.
For `COc1ccc(CC(=O)Oc2ccccc2C)cc1S(=O)(=O)N1CCOCC1`, the “hERG current change (%, negative = inhibition) at 1uM” value was 0.64%.
For `COCCOC(=O)C1=C(C)Nc2nc(C)nn2C1c1ccccc1` (stereo not drawn), the “hERG current change (%, negative = inhibition) at 1uM” value was 16.1%.
For `Cc1cccc(NC(=O)CSCC(=O)Nc2ccccc2N2CCCC2)c1`, the “hERG current change (%, negative = inhibition) at 1uM” value was -45.8%.
For `O=C(CSc1nc2ccccc2o1)NCCOc1ccccc1`, the “hERG current change (%, negative = inhibition) at 1uM” value was 13.2%.
For `COc1ccc(/C=C(\NC(=O)c2ccccc2)C(=O)N2CCCCC2)cc1OC`, the “hERG current change (%, negative = inhibition) at 1uM” value was 14%.
`Cc1ccc(CC(=O)O/N=C(\N)Cc2ccc([N+](=O)[O-])cc2)cc1` was tested, and the “hERG current change (%, negative = inhibition) at 1uM” value was 6.73%.
In the case of `COc1ccc(NC(=O)[C@@H]2CC=C[C@@H]3CCN(C4CCCCC4)C(=O)[C@@H]32)cc1`, the “hERG current change (%, negative = inhibition) at 1uM” value was 11.5%.
With `CCOC(=O)C1CCCN(C2=NC(=O)/C(=C/c3ccc(OC)c(OC)c3)S2)C1` (stereo not drawn) the “hERG current change (%, negative = inhibition) at 1uM” value was 10.2%.
`Cc1ccc(S(=O)(=O)N2C=CC(C(F)(F)F)=NCC2)cc1` was tested, and the “hERG current change (%, negative = inhibition) at 1uM” value was 17.3%.
For `COc1ccc(N2C(=O)CC(NNc3nc4ccccc4s3)C2=O)cc1` (stereo not drawn), the “hERG current change (%, negative = inhibition) at 1uM” value was 16.6%.
In the case of `COc1ccc(C2OC34CCCCC3C(C#N)(C#N)C2(C#N)C(=N)O4)cc1` (stereo not drawn), the “hERG current change (%, negative = inhibition) at 1uM” value was -0.882%.
`Cc1ccc(CS(=O)Cc2ccc(C(=O)NCc3ccc4c(c3)OCO4)o2)cc1` (stereo not drawn) was tested, and the “hERG current change (%, negative = inhibition) at 1uM” value was 7.66%.
